From patent publication US11707521B2, “Mucosal adjuvant” (priority 2018, dated 2023) come the findings set out here.

The subject of assay [1] is A/California/07/2009 strain. As to the kind of experiment: Transnasal administration to mice, serum IgG titer specific to A/California/07/2009 strain. The class given is in vivo, BALB/c mice.
Assay [2] relates to B/Texas/2/2013 strain. As to the kind of experiment: Transnasal administration to mice, serum IgG titer specific to B/Texas/2/2013 strain. The class given is in vivo, BALB/c mice.
Assay [3] deals with B/Texas/2/2013 strain. As to the kind of experiment: Transnasal administration to mice, B/Texas/2/2013 strain-specific IgG1 and IgG2a titers (GMT). Format: in vivo, BALB/c mice. Particulars: vs adjuvant non-addition.
The test system of assay [4] is A/California/07/2009 strain. Particulars: in vivo, sc.
Assay [5] concerns B/Texas/2/2013 strain. The settings on record: in vivo, sc.
[6] abbreviates: inactivated whole-virus antigens + 0.03 or 0.3 μg per dose, vs adjuvant non-addition.
Where [7] appears, read: split antigens + 0.03 to 30 μg per dose, compared with adjuvant non-addition.
[8] abbreviates: split antigens + 0.03 to 30 μg per dose, compared with inactivated whole-virus antigens without adjuvant.
Setting [9] is: inactivated whole-virus antigens + 30 μg, vs adjuvant non-addition group.
[10] abbreviates: split antigens + 30 μg, vs adjuvant non-addition.

Like-named read-outs stand apart in the source and are kept apart here.

Consider `NCCNC(=O)[C@H](CCCCNC(=O)[C@H](CCCCNC(=O)c1cc(O)c(O)c(O)c1)NC(=O)c1cc(O)c(O)c(O)c1)NC(=O)[C@H](CCCCNC(=O)c1cc(O)c(O)c(O)c1)NC(=O)c1cc(O)c(O)c(O)c1` [TGDK, N2,N6-bis[N2,N6-bis(3,4,5-trihydroxybenzoyl)-lysyl]-N-(2-aminoethyl)-lysinamide], for which the “IgG titer, A/California/07/2009 strain” value in assay [1] (setting [6]) is “increased”; in assay [1] (setting [8]), “substantially the same level as in the inactivated whole-virus antigens”. Besides, the “IgG titer for the A/California/07/2009 strain” value was “significantly higher” in assay [1] (split antigens + 0.03 to 0.3 μg, vs adjuvant non-addition, Mann-Whitney U test p<0.05) and “substantially the same level as in the single administration of the split antigens” in assay [4]. In addition, in assay [1] (setting [7]), the “antigen-specific IgG titer in blood, A/California/07/2009 strain” value was “elevated”. Further, the “IgG titer, B/Texas/2/2013 strain” value in the assay on B/Texas/2/2013 strain [2] (setting [6]) was “increased”; with B/Texas/2/2013 strain [2] (setting [8]), “substantially the same level as in the inactivated whole-virus antigens”. For the same compound, the “IgG titer for the B/Texas/2/2013 strain” value is “significantly higher” in the assay on B/Texas/2/2013 strain [2] (split antigens + 0.03 to 3 μg, vs adjuvant non-addition, Mann-Whitney U test p<0.05) and “substantially the same level as in the single administration of the split antigens” in the assay on B/Texas/2/2013 strain [5]. The “antigen-specific IgG titer in blood, B/Texas/2/2013 strain” value with B/Texas/2/2013 strain [2] (setting [7]) was “elevated”. For the same compound, the “IgG2a titer (GMT), B/Texas/2/2013 strain-specific” value in the assay on B/Texas/2/2013 strain [3] (inactivated whole-virus antigens + 0.3 μg) and in the assay on B/Texas/2/2013 strain [3] (split antigens + 0.3 μg) was “markedly elevated” throughout.

Regarding `O=C(O)c1cc(O)c(O)c(O)c1` [gallic acid, reference compound], the “IgG titer for the A/California/07/2009 strain” value in assay [1] (setting [9]) is on record as “substantially the same level as in the adjuvant non-addition group”; in assay [1] (setting [10]), “substantially the same level as in adjuvant non-addition”; in assay [4], “substantially the same level as in the split antigen single administration group”. Moreover, the “IgG titer for the B/Texas/2/2013 strain” value in the assay with B/Texas/2/2013 strain [2] (setting [9]) is listed as “decreased”; in the assay on B/Texas/2/2013 strain [2] (setting [10]), “significantly decreased”; in the assay on B/Texas/2/2013 strain [5], “substantially the same level as in the split antigen single administration group”.
